According to the supplement of paper PMC5499739:
Whole data set: some 16,000 sequences, median “Z-score” near -0.37, cut for the highest 2% near 3.2. The list shows a part of the results.

Each sequence was assayed on RBM10 RRM1-ZnF (GST-tagged construct) (assay: RNAcompete 7-mer binding Z-score; higher = stronger binding preference).
Procedure, shortened: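 GST-tagged RBM10 constructs (20 pmol) were mixed with a designed pool of 241 399 RNAs up to 41 nt (1.5 nmol), transcribed from microarray-derived DNA templates. Mixing was in 1 ml Hepes pH 7.8 buffer with KCl, NaCl, glycerol, DTT, BSA and glutathione Sepharose beads. Binding ran 30 min at 4°C, followed by four 2-min washes at 4°C, and bound RNA was identified by microarray hybridisation. Each heptamer motif received a one-sided Z-score for enrichment across probes containing it.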

Row | Sequence | RNAcompete 7-mer binding Z-score
1 | GCAUCAU | -0.415
2 | AGAGAGU | 0.569
3 | CCCUACA | -0.789
4 | UGCAACG | -0.132
5 | UAUAGAC | -0.259
6 | CUUCCAA | -0.756
7 | CUACUCC | -0.779
8 | GGAUGUU | 0.959
9 | UUGCGCG | -0.201
10 | UGGCCAC | -0.405
11 | ACUAUCA | -0.694
12 | GGAUGUA | 1.7
13 | AGUUUGC | -0.282
14 | AAAUAAU | -0.37
15 | GUGAUCU | -0.321
16 | UUGUUCU | -0.789
17 | GCUCGCU | -0.652
18 | CACGCAC | -0.402
19 | UCCUCUC | -0.535
20 | UAACGAU | -0.383
21 | UAUGGUG | 1.69
22 | UAGUUUC | -0.568
23 | GACGCAC | -0.37

Row | Sequence | RNAcompete 7-mer binding Z-score
24 | CCAAUCG | -0.6
25 | UAACCUG | -0.607
26 | GUUGUAC | -0.152
27 | GAACGAU | -0.149
28 | GUGAAGU | 1.08
29 | AUAGGAG | 2.4
30 | GCGUGAU | 0.222
31 | AUUUAGA | -0.21
32 | CACAUAC | -0.701
33 | ACACUGA | -0.415
34 | UUAAAUA | -0.337
35 | UUUCGGA | 0.0105
36 | AACCAAU | -0.617
37 | AAUUCAG | -0.496
38 | GUCUGAU | -0.516
39 | GAGAUUG | 0.573
40 | GUAUUUU | -0.604
41 | UGCUCUA | -0.789
42 | UAAGUUA | -0.204
43 | CGGCUUG | -0.324
44 | GAACUCU | -0.841
45 | GUCUUUG | -0.496
46 | UUCUCAA | -0.733

Row | Sequence | RNAcompete 7-mer binding Z-score
47 | UCGGGUC | 0.329
48 | AGGUAGU | 1.19
49 | CUAUAGU | -0.532
50 | CUUUACC | -0.98
51 | CGAAACC | -0.629
52 | ACUAACG | -0.321
53 | UCUACAA | -0.6
54 | AAAUUUG | -0.347
55 | AAAGGUA | 3.05
56 | AAGUGAC | 0.576
57 | UUCCCGC | -0.759
58 | GGAGUCA | 0.975
59 | CCUAGAG | -0.425
60 | GGCCCGC | -0.451
61 | AUUAGGU | 0.884
62 | AGUCGAC | -0.21
63 | AAAGUCU | -0.565
64 | AUAUCCG | -0.724
65 | CCGAAGA | -0.581
66 | AUACGUC | -0.474
67 | UGUCUGU | -0.62
68 | AGAAGCA | 0.0723
69 | UGAGUCC | -0.623

Row | Sequence | RNAcompete 7-mer binding Z-score
70 | UAGGUGG | 3.08
71 | GAGGAGG | 2.97
72 | CUCACUA | -0.72
73 | CUUGCGC | -0.74
74 | GUAGUGU | 1.01
75 | UCACUAU | -0.665
76 | UGUCUUG | -0.646
77 | UGGAACC | 0.322
78 | AGCCAAU | -0.597
79 | UAACCGC | -0.509
80 | UCUUCGU | -0.85
81 | GACCACA | -0.639
82 | ACUGUAG | -0.155
83 | GAGUAGC | 0.293
84 | GACUGUA | -0.383
85 | CCCUUUC | -0.841
86 | CGAGUGG | 2
87 | UUGCAGG | 0.582
88 | CUCGAAC | -0.74
89 | CGUCUCC | -0.668
90 | UUCCGGC | -0.649
91 | UUUUGUU | -0.461
92 | CCCCUCG | -0.344

Row | Sequence | RNAcompete 7-mer binding Z-score
93 | GGUGCCU | 0.222
94 | GCCUGGG | 0.703
95 | AUAGAAC | -0.116
96 | GCCUGUC | -0.678
97 | CAUUCCA | -0.824
98 | GGCAUUG | 0.647
99 | ACUGUAC | -0.73
100 | UCAAACG | -0.49
101 | AUACAUC | -0.62
102 | CAGUGAC | -0.506
103 | CCACCUA | -0.526
104 | GCUCCUC | -0.587
105 | AGUUGGU | 1.78
106 | UAAUAUG | -0.123
107 | UAUACCG | -0.542
108 | AUGCACC | -0.6
109 | GACUCUA | -0.642
110 | AACUUCG | -0.665
111 | AUCCUAA | -0.922
112 | CGCUUAU | -0.649
113 | GCCUAGA | -0.662
114 | GCAACGU | -0.0837
115 | CCUUUCG | -0.821

Row | Sequence | RNAcompete 7-mer binding Z-score
116 | AGUGGUU | 1.95
117 | GGUUCCA | -0.116
118 | GUCUGCG | -0.337
119 | GGUUGUU | 1.02
120 | CCCGCGG | 0.488
121 | GUGACCG | 0.115
122 | GCUGAGU | 0.27
123 | CGGGUCU | 0.339
124 | CCGAAUG | -0.604
125 | UUAUCGU | -0.535
126 | AGCCCUC | -0.854
127 | GCAUAAG | 0.209
128 | GUUGACU | -0.123
129 | AGAAUCC | -0.785
130 | GCGAAAU | -0.00246
131 | UUGAUCA | -0.412
132 | UGUCAAA | -0.373
133 | AGUUCCU | -0.792
134 | GUCAGGG | 2.07
135 | UUAAAAU | -0.5
136 | AUGCAAU | -0.175
137 | CCGUGGC | -0.035
138 | AGAGAAG | 1.63

Row | Sequence | RNAcompete 7-mer binding Z-score
139 | GGGUGGG | 4.82
140 | CAUCAUG | -0.532
141 | UCGGCAC | -0.503
142 | UCACUCU | -0.73
143 | UGGCCCC | 0.16
144 | CCAACUA | -0.568
145 | GAUCUAA | -0.344
146 | UUCGUAU | -0.681
147 | AUAUCAG | -0.288
148 | GGCUCGG | 0.664
149 | GGAGCGG | 4.52
150 | CACUCAU | -0.821
151 | GAGAAGC | 0.524
152 | UCGCAGU | -0.253
153 | AAAACUC | -0.724
154 | GCGGUAG | 1.51
155 | GCUACAU | -0.503
156 | GGGCACG | 2.26
157 | GAACUAC | -0.493
158 | UCGGUCU | -0.662
159 | UCUGUCA | -0.717
160 | ACACGAA | -0.503
161 | AUUGUAC | -0.467

Row | Sequence | RNAcompete 7-mer binding Z-score
162 | CGGCAUU | -0.373
163 | GAUUGGC | 0.953
164 | UGUUACC | -0.626
165 | UCGACCA | -0.681
166 | UAAGUGU | 0.124
167 | CCAGAUU | -0.717
168 | UCUACAC | -0.691
169 | UCAGCCC | -0.73
170 | GAGUCAC | 0.00729
171 | CACCAGC | -0.571
172 | UACGCAU | -0.448
173 | AAUUCUA | -0.662
174 | AAGCUUC | -0.746
175 | ACUCGCU | -0.662
176 | CUUCUUA | -0.672
177 | CUUGCUC | -0.685
178 | UAGCCUG | -0.655
179 | UACUACG | -0.532
180 | GACGAAA | 0.228
181 | UAAGUUU | -0.558
182 | GAUUCUG | -0.565
183 | CGCAGGG | 1.8
